Measured values taken from paper PMC9911399, “Two distinct binding modes provide the RNA-binding protein RbFox with extraordinary sequence specificity”.
Changes are numbered by the printed parent chain; changes in the protein carry UniProt numbers. Some of the results follow.

T1: RBFOX1 RRM RbFoxmut (Fox-RRM*) (Homo sapiens, UniProt Q9NWB1 109-208, R118D;E147R;N151S;E152T)
T1 sequence: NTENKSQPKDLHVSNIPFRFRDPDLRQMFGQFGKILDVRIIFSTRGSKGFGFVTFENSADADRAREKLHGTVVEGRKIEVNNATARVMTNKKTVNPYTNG

B1: CUGCAGC (DNA:RNA)
RNA: GGGAGACCGGAAUUCAGAUUGUCCCUGCAGCUUAAAUCCCGUCGUAGCCACCA
DNA 1: CAATCTGAATTCCGGTCTCCC
DNA 2: TGGTGGCTACGACGGGATT
B2: UUAGGUA (DNA:RNA)
RNA: B1 RNA with C25U, G27A, C28G, A29G, G30U, C31A
DNA 1: CAATCTGAATTCCGGTCTCCC
DNA 2: TGGTGGCTACGACGGGATT
B3: ACUAGAA (DNA:RNA)
RNA: GGGAGACCGGAAUUCAGAUUGUCCACUAGAAUUAAAUCCCGUCGUAGCCACCA
DNA 1: CAATCTGAATTCCGGTCTCCC
DNA 2: TGGTGGCTACGACGGGATT
B4: AAGCGUA (DNA:RNA)
RNA: B3 RNA with C26A, U27G, A28C, A30U
DNA 1: CAATCTGAATTCCGGTCTCCC
DNA 2: TGGTGGCTACGACGGGATT
B5: CGGUUGG (DNA:RNA)
RNA: B1 RNA with U26G, C28U, A29U, C31G
DNA 1: CAATCTGAATTCCGGTCTCCC
DNA 2: TGGTGGCTACGACGGGATT
B6: GGAUCAU (DNA:RNA)
RNA: B3 RNA with A25G, C26G, U27A, A28U, G29C, A31U
DNA 1: CAATCTGAATTCCGGTCTCCC
DNA 2: TGGTGGCTACGACGGGATT
B7: CAAAAAU (DNA:RNA)
RNA: B3 RNA with A25C, C26A, U27A, G29A, A31U
DNA 1: CAATCTGAATTCCGGTCTCCC
DNA 2: TGGTGGCTACGACGGGATT
B8: GAUCCAA (DNA:RNA)
RNA: B3 RNA with A25G, C26A, A28C, G29C
DNA 1: CAATCTGAATTCCGGTCTCCC
DNA 2: TGGTGGCTACGACGGGATT
B9: GACUGUA (DNA:RNA)
RNA: B3 RNA with A25G, C26A, U27C, A28U, A30U
DNA 1: CAATCTGAATTCCGGTCTCCC
DNA 2: TGGTGGCTACGACGGGATT
B10: UCAGCAG (DNA:RNA)
RNA: B3 RNA with A25U, U27A, A28G, G29C, A31G
DNA 1: CAATCTGAATTCCGGTCTCCC
DNA 2: TGGTGGCTACGACGGGATT
B11: UGAGGGC (DNA:RNA)
RNA: B1 RNA with C25U, U26G, G27A, C28G, A29G
DNA 1: CAATCTGAATTCCGGTCTCCC
DNA 2: TGGTGGCTACGACGGGATT
B12: AGGUAGG (DNA:RNA)
RNA: B1 RNA with C25A, U26G, C28U, C31G
DNA 1: CAATCTGAATTCCGGTCTCCC
DNA 2: TGGTGGCTACGACGGGATT
B13: CGGGCUC (DNA:RNA)
RNA: B1 RNA with U26G, C28G, A29C, G30U
DNA 1: CAATCTGAATTCCGGTCTCCC
DNA 2: TGGTGGCTACGACGGGATT
B14: UUAAAGU (DNA:RNA)
RNA: B1 RNA with C25U, G27A, C28A, C31U
DNA 1: CAATCTGAATTCCGGTCTCCC
DNA 2: TGGTGGCTACGACGGGATT
B15: ACCGCAC (DNA:RNA)
RNA: B3 RNA with U27C, A28G, G29C, A31C
DNA 1: CAATCTGAATTCCGGTCTCCC
DNA 2: TGGTGGCTACGACGGGATT
B16: GUGCACA (DNA:RNA)
RNA: B1 RNA with C25G, G30C, C31A
DNA 1: CAATCTGAATTCCGGTCTCCC
DNA 2: TGGTGGCTACGACGGGATT
B17: GAAGCAG (DNA:RNA)
RNA: B3 RNA with A25G, C26A, U27A, A28G, G29C, A31G
DNA 1: CAATCTGAATTCCGGTCTCCC
DNA 2: TGGTGGCTACGACGGGATT
B18: GCGUUAU (DNA:RNA)
RNA: B3 RNA with A25G, U27G, A28U, G29U, A31U
DNA 1: CAATCTGAATTCCGGTCTCCC
DNA 2: TGGTGGCTACGACGGGATT
B19: GUCCCUU (DNA:RNA)
RNA: B1 RNA with C25G, G27C, A29C, G30U, C31U
DNA 1: CAATCTGAATTCCGGTCTCCC
DNA 2: TGGTGGCTACGACGGGATT
B20: CAGCUUC (DNA:RNA)
RNA: B1 RNA with U26A, A29U, G30U
DNA 1: CAATCTGAATTCCGGTCTCCC
DNA 2: TGGTGGCTACGACGGGATT
B21: GACACCU (DNA:RNA)
RNA: B3 RNA with A25G, C26A, U27C, G29C, A30C, A31U
DNA 1: CAATCTGAATTCCGGTCTCCC
DNA 2: TGGTGGCTACGACGGGATT
B22: GGGGGCG (DNA:RNA)
RNA: B3 RNA with A25G, C26G, U27G, A28G, A30C, A31G
DNA 1: CAATCTGAATTCCGGTCTCCC
DNA 2: TGGTGGCTACGACGGGATT
B23: UGCACCC (DNA:RNA)
RNA: B3 RNA with A25U, C26G, U27C, G29C, A30C, A31C
DNA 1: CAATCTGAATTCCGGTCTCCC
DNA 2: TGGTGGCTACGACGGGATT
B24: CUUGUGU (DNA:RNA)
RNA: B1 RNA with G27U, C28G, A29U, C31U
DNA 1: CAATCTGAATTCCGGTCTCCC
DNA 2: TGGTGGCTACGACGGGATT
B25: GCCGCCA (DNA:RNA)
RNA: B3 RNA with A25G, U27C, A28G, G29C, A30C
DNA 1: CAATCTGAATTCCGGTCTCCC
DNA 2: TGGTGGCTACGACGGGATT
B26: GUGUGAU (DNA:RNA)
RNA: B3 RNA with A25G, C26U, U27G, A28U, A31U
DNA 1: CAATCTGAATTCCGGTCTCCC
DNA 2: TGGTGGCTACGACGGGATT
B27: UUACCGG (DNA:RNA)
RNA: B1 RNA with C25U, G27A, A29C, C31G
DNA 1: CAATCTGAATTCCGGTCTCCC
DNA 2: TGGTGGCTACGACGGGATT
B28: UUAACGC (DNA:RNA)
RNA: B1 RNA with C25U, G27A, C28A, A29C
DNA 1: CAATCTGAATTCCGGTCTCCC
DNA 2: TGGTGGCTACGACGGGATT
B29: CUAAGAA (DNA:RNA)
RNA: B3 RNA with A25C, C26U, U27A
DNA 1: CAATCTGAATTCCGGTCTCCC
DNA 2: TGGTGGCTACGACGGGATT
B30: UAUCUAC (DNA:RNA)
RNA: B3 RNA with A25U, C26A, A28C, G29U, A31C
DNA 1: CAATCTGAATTCCGGTCTCCC
DNA 2: TGGTGGCTACGACGGGATT
B31: GGUUCUG (DNA:RNA)
RNA: B3 RNA with A25G, C26G, A28U, G29C, A30U, A31G
DNA 1: CAATCTGAATTCCGGTCTCCC
DNA 2: TGGTGGCTACGACGGGATT

target: T1, RBFOX1 RRM RbFoxmut (Fox-RRM*); assay: EMSA; HiTS-Eq, 1 nM pool, 10 min; buffer printed only for the single-RNA assays: 10 mM Tris pH 7.5, 150 mM NaCl, 3.4 mM EDTA, 0.001% NP-40, 30 C; settings: tags: His6 N-terminal (pET28a); label: 5' 32P
How it was run: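 Purified RbFox RRM, wild type or mutant, was incubated for 10 min in 50 µL with 1 nM of a 5′-radiolabelled RNA pool carrying 7 randomized nucleotides, whose flanks were annealed to DNA oligonucleotides, over a series of increasing protein concentrations. Unbound RNA was resolved on 8% native PAGE, cut out, reverse-transcribed, barcoded by PCR and sequenced on an Illumina HiSeq 2500. Relative association constants were derived from changes in read counts for each RNA species versus the control reaction and normalised to the cognate motif.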

| Binder | binding signal |
| --- | --- |
| B1 | 0.0634 KA relative to UGCAUGU |
| B2 | 0.148 KA relative to UGCAUGU |
| B3 | 0.108 KA relative to UGCAUGU |
| B4 | 0.135 KA relative to UGCAUGU |
| B5 | 0.13 KA relative to UGCAUGU |
| B6 | 0.134 KA relative to UGCAUGU |
| B7 | 0.0784 KA relative to UGCAUGU |
| B8 | 0.0776 KA relative to UGCAUGU |
| B9 | 0.31 KA relative to UGCAUGU |
| B10 | 0.0847 KA relative to UGCAUGU |
| B11 | 0.0898 KA relative to UGCAUGU |
| B12 | 0.112 KA relative to UGCAUGU |
| B13 | 0.126 KA relative to UGCAUGU |
| B14 | 0.0977 KA relative to UGCAUGU |
| B15 | 0.0716 KA relative to UGCAUGU |
| B16 | 0.111 KA relative to UGCAUGU |

| Binder | binding signal |
| --- | --- |
| B17 | 0.075 KA relative to UGCAUGU |
| B18 | 0.0949 KA relative to UGCAUGU |
| B19 | 0.0619 KA relative to UGCAUGU |
| B20 | 0.0808 KA relative to UGCAUGU |
| B21 | 0.0627 KA relative to UGCAUGU |
| B22 | 0.162 KA relative to UGCAUGU |
| B23 | 0.127 KA relative to UGCAUGU |
| B24 | 0.195 KA relative to UGCAUGU |
| B25 | 0.0838 KA relative to UGCAUGU |
| B26 | 0.127 KA relative to UGCAUGU |
| B27 | 0.0711 KA relative to UGCAUGU |
| B28 | 0.0819 KA relative to UGCAUGU |
| B29 | 0.0809 KA relative to UGCAUGU |
| B30 | 0.0777 KA relative to UGCAUGU |
| B31 | 0.208 KA relative to UGCAUGU |
